For 29 compounds, activity change, negative = inhibition results are on record in PubChem BioAssay AID1745853 (National Center for Advancing Translational Sciences (NCATS), 2022).

“And” between values parts separate entries of the source, which are not always exact repeats. Equal values may be shown once. Some of the results follow. Shown are side measurements of this screen, not its main read-out; they come without a call.

What all share (test): Primary Screen for Target Class Profiling of Small Molecule Inhibitors of Methyltransferases
In assay [1] the target is Glycine N-methyltransferase (Homo sapiens) (UniProt Q14749). Conditions: purified enzyme, MTase-Glo SAH luminescence; measured here: GNMT inhibition; at 40 µM; stronger effect = lower value. The essentials:
(§1)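 Each enzyme was assayed with SAM and its substrate. SAH formation detected by MTase-Glo luminescence; single-point 40 uM screen[…].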

The target in assay [2] is Guanidinoacetate N-methyltransferase (Homo sapiens) (UniProt Q14353). Conditions: purified enzyme, MTase-Glo SAH luminescence; measured here: GAMT inhibition; at 40 µM; stronger effect = lower value. The essentials: as §1
The target of assay [3] is Histamine N-methyltransferase (Homo sapiens) (UniProt P50135). Conditions: purified enzyme, MTase-Glo SAH luminescence; measured here: HNMT inhibition; at 40 µM; stronger effect = lower value. The essentials: as §1
Assay [4] has as its target Nicotinamide N-methyltransferase (Homo sapiens) (UniProt P40261). Conditions: purified enzyme, MTase-Glo SAH luminescence; measured here: NNMT inhibition; at 40 µM; stronger effect = lower value. The essentials:
as §1

For assay [5], the target named is Phenylethanolamine N-methyltransferase (Homo sapiens) (UniProt P11086). Conditions: purified enzyme, MTase-Glo SAH luminescence; measured here: PNMT inhibition; at 40 µM; stronger effect = lower value. The essentials:
as §1
% is scaled to controls: 0 for no effect and ±100 for the full control effect.

As to `COc1nccnc1NC1CCN(C(=O)c2cccc(C)c2)CC1`, the activity change, negative = inhibition in assay [1] was -5.22%; in assay [2], -2.64%; in assay [3], -1.84%; in assay [4], -2.99%; in assay [5], 0.382%.
For `Cn1c(=O)n(C)c2cc(S(=O)(=O)N3CCN(c4ccc(F)cc4)CC3)ccc21`, in that order: -10.3%, 0%, -11.2%, -11.7% and -11.9%.
For `Cc1nc(C)c(C(=O)N2CCCC2c2nc(CCOCC3CCCC3)no2)s1` (configuration not stated), in that order: -1.74%, -0.229%, 2.43%, -2.6% and 2.7%.
On to `Cc1ccccc1CN1CC2(COCC1=O)CN(c1ccc(C(F)(F)F)cn1)C2`, for which the activity change, negative = inhibition in assay [1] is -11.6%; in assay [2] it was 3.1%; in assay [3], 1.94%; in assay [4], -7.59%; in assay [5], 1.2%.
Consider `O=C(NCC(=O)N1CCCC1)Nc1ccc2ccccc2c1`, for which the activity change, negative = inhibition was -3.92% in assay [1]; -8.21% in assay [2]; 6.64% in assay [3]; -18.2% in assay [4]; -36.5% in assay [5].
For `COc1ccc(OC)c(CNC(=O)c2cc3n(n2)CC(C)(C(=O)NCc2ccc(F)cc2)N(C)C3=O)c1` (configuration not stated), in that order: 0.972%, 4.46%, -2.97%, 3.78% and 2.58%.
On the same counts, the results for `CC(C)NC(=O)c1ccc2c(=O)n(Cc3ccccc3)c3nn(Cc4c(F)cccc4Cl)c(=O)n3c2c1` are 2.2%, 0%, 4.18%, 4.87% and 6.03%.
Take `Clc1ccc2c(c1)N=C(N1CCNCC1)c1ccccc1N2`: the activity change, negative = inhibition in assay [1] is -6.78% and -17.8%; in assay [2] it was -7.21% and 14%; in assay [3], 0.818% and 3.99%; in assay [4], -26.4% and -3.87%; in assay [5] it was -6.12% and 9.76%.
For `C[C@@H](Oc1cc(-n2cnc3ccc(OC4CCN(C)CC4)cc32)sc1C(N)=O)c1ccccc1C(F)(F)F`, the activity change, negative = inhibition was -80.9% in assay [1]; -87.1% in assay [2]; -91.8% in assay [3]; -95.7% in assay [4]; -92.5% in assay [5].
On the same counts, the results for `COc1cc2c(cc1OC(C)C)[C@H](c1ccc(Cl)cc1)N(c1ccc(N(C)CC3CCC(N4CCN(C)C(=O)C4)CC3)cc1)C(=O)C2` (some centres not stated) are -14.4%, 11.2%, -20.8%, -14.6% and -10.6%.
On the same counts, the results for `COc1ccc(/C=C/C(=O)O[C@@H]2[C@@H](OC(C)=O)[C@@H](OC(C)=O)[C@H](O[C@H]3[C@@H]4C=CO[C@@H](O[C@@H]5O[C@H](CO)[C@@H](O)[C@H](O)[C@H]5O)[C@@H]4[C@@]4(CO)O[C@@H]34)O[C@H]2C)cc1` are 0%, 7.02%, 4.92%, -4.22% and 9.59%.
As for `CC(C)CCn1c(=O)c2ccc(C(=O)NC3CCCCC3)cc2n2c(=O)n(Cc3cccc(F)c3)nc12`, the activity change, negative = inhibition in assay [1] came out at 0.27%; in assay [2] it was 4.5%; in assay [3] it was 3.16%; in assay [4], 0.77%; in assay [5], 0.191%.
As to `Cc1noc(C2CC3(CCN(C(=O)CCc4c[nH]c5ccccc45)CC3)CN2C)n1` (configuration not stated), the activity change, negative = inhibition in assay [1] was -2.22%; in assay [2] it was -0.505%; in assay [3], -0.466%; in assay [4] it was -2.4%; in assay [5], -5.02%.
For `CCC(C)NC(=O)c1ccc2c(=O)n(C(C)C)c3nn(CC(=O)Nc4cccc(C)c4)c(=O)n3c2c1` (configuration not stated), in that order: 2.24%, 0.48%, -0.836%, 1.27% and -2.43%.
As for `CC(C(=O)NCc1cccnc1)n1ccc2cc(S(=O)(=O)N3CCCC3)ccc21` (configuration not stated), the activity change, negative = inhibition was 9.24% in assay [1]; 2.18% in assay [2]; 5.99% in assay [3]; 10.8% in assay [4]; 4.43% in assay [5].
On to `COc1ccccc1CNC(=O)C1(C)Cn2c(cc3ccccc32)C(=O)N1Cc1cccc(OC)c1OC` (configuration not stated), for which the activity change, negative = inhibition in assay [1] is -1.2%; in assay [2] it was 3.09%; in assay [3], 3.36%; in assay [4], 0.417%; in assay [5], 0.22%.
`COc1ccc(OC)c(CCN2C(=O)c3cc4occc4n3CC2(C)C(=O)NC2CCCCC2)c1` (configuration not stated): the activity change, negative = inhibition in assay [1] is 0.203%; in assay [2], 3.73%; in assay [3], 0.678%; in assay [4], 3.49%; in assay [5], 1.33%.
In the case of `O=C(c1cc(-c2ccc(Cl)cc2Cl)c2cccn2n1)N1CCCC1`, the activity change, negative = inhibition is -11.2% in assay [1]; -0.71% in assay [2]; -7.08% in assay [3]; -24.4% in assay [4]; -4.46% in assay [5].
`CCc1ccc(N2C(=O)c3c(C(=O)OC)ncn3CC2(C)C(=O)NC2CCCCCC2)cc1` (configuration not stated): the activity change, negative = inhibition in assay [1] is -0.254%; in assay [2] it was 3.96%; in assay [3], 1.28%; in assay [4], 4.95%; in assay [5], 0.618%.
For `O=c1c2c(CO)c(-c3ccccc3)nn2ccn1Cc1ccccc1`, in that order: -3.56%, -3.26%, -0.49%, -4.37% and -3.21%.
For `Cc1ccc(-c2nnn3c2nc(NCCC(C)C)c2ccccc23)cc1`, in that order: 0.922%, 2.2%, -1.58%, -2.76% and -3.52%.
For `C/C(=N\N=C(N)N)c1cc(NC(=O)CCCCCCCCC(=O)Nc2cc(/C(C)=N/N=C(N)N)cc(/C(C)=N/N=C(N)N)c2)cc(/C(C)=N/N=C(N)N)c1`, in that order: -54.7%, -37.1%, -90.1%, -70.2% and -61.4%.
Turning to `O=C(Nc1ccc2c(c1)OCCO2)N1CCC(Cc2nc(-c3ccncc3)n[nH]2)C1` (configuration not stated), the activity change, negative = inhibition in assay [1] is -27.3%; in assay [2], -22.3%; in assay [3], -24.9%; in assay [4], -37.6%; in assay [5] it was -41.1%.
On the same counts, the results for `O=C(NCCc1ccccc1)c1ccc2c(=O)nc3c(-c4ccccc4F)n[nH]n3c2c1` are -6.86%, 0%, 1.6%, 6.4% and -1.64%.
For `CC(C)Oc1ccc(CN2C(=O)c3cc4occc4n3CC2(C)C(=O)NC2CCCCC2C)cc1` (configuration not stated), in that order: -3.48%, 5.61%, -1.43%, -7.6% and -5.46%.
On the same counts, the results for `CCn1c(=O)c(-c2ccc(-c3cncs3)cc2Cl)cc2cnc(Nc3ccc(N4CCN(C)CC4)cc3)nc21` are -3.31%, 1.33%, -27.1%, -14% and -6.15%.
For `O=C(CCn1ccc2cc(S(=O)(=O)N3CCCCC3)ccc21)N1CCN(c2ccccn2)CC1`, the activity change, negative = inhibition in assay [1] is -1.97%; in assay [2] it was 1.38%; in assay [3], -4.51%; in assay [4], -3.02%; in assay [5], -1.45%.
With `COc1ccc(CC(=O)N2C[C@@H](CO)[C@H](c3ccccn3)C2)cc1`, the activity change, negative = inhibition in assay [1] is -1.67%; in assay [2] it was -0.655%; in assay [3] it was 1.26%; in assay [4] it was -1.46%; in assay [5], -5.61%.
Turning to `Nc1nc(CC(=O)Nc2ccc(CCNCC(O)c3ccccc3)cc2)cs1` (configuration not stated), the activity change, negative = inhibition was -4.33% in assay [1] and 3.75% in assay [3].
